PubChem BioAssay AID1479 (National Center for Advancing Translational Sciences (NCATS), 2009)
Among all 280,000 compounds or so, about 820 (0.29%) were called active. The shares of active, inactive and inconclusive entries below differ from those in the screen. Calls follow the shape of the dose curve; as a rule, active = well fitted curve in either direction with a large enough effect; inconclusive = small, poorly fitted or top-dose-only effect; inactive = flat fitted curve, though single readings scatter. No potency is given beside an inconclusive call; the fits are too rough.

experiment: Total Fluorescence Counterscreen for Inhibitors of the Interaction of Thyroid Hormone Receptor and Steroid Receptor Coregulator 2; settings: TRb/SRC2 Texas Red total fluorescence interference; series mostly up to 106 µM
Text: NIH Molecular Libraries Probe Production Network [MLPCN]
NIH Chemical Genomics Center [NCGC]
Assay Provider: R. Kip Guy, St. Jude Children's Research Hospital
Thyroid receptor (TR) regulates many homeostatic processes including basal metabolism, cardiovascular function, body weight, and lipid trafficking. TR modulators are potential therapeutics for obesity and hyperlipidemias but current thyroid analogs have undesirable side effects, particularly cardiac stimulation. To identify inhibitors that specifically prevent the interaction of TR with the steroid receptor […] 2 (SRC2), a fluorescence polarization assay was screened. This assay detects interaction of the ligand-binding domain of human TRb with a Texas Red labeled SRC2 peptide, corresponding to a 20 amino acid region of the nuclear receptor interaction domain (Arnold et al., 2006). Total fluorescence (555 nm excitation and 632 nm emission) was measured to identify potential fluorescent and light absorbing compounds. Such compounds may be artifacts that interfere with the fluorescence polarization assay.
Arnold, L. A.; Estebanez-Perpina, E.; Togashi, M.; Shelat, A.; Ocasio, C. A.; McReynolds, A. C.; Nguyen, P.; Baxter, J. D.; Fletterick, R. J.; Webb, P.; Guy, R. K. A high-throughput screening method to identify small molecule inhibitors of thyroid hormone receptor coactivator binding. Sci STKE 2006, p 13.
NCGC Assay Protocol Summary:
For screening, 5 uL/well 0.6 uM TRb and 20 nM SRC2 Texas Red in protein buffer (20mM Tris hydrochloride, 100mM NaCl, 10% glycerol, 1mM EDTA, 0.01% NP-40, 1mM DTT, 1uM T3 and 5% DMSO) was dispensed into black solid 1536-well plates (Grenier) using a solenoid-based dispenser. Following transfer of 23 nL compound or DMSO vehicle by a pin tool, the plates were centrifuged 15 s at 1000 RPM and incubated 5 hr at ambient temperature. The plates were read by an Envision (Perkin Elmer) to detect fluorescence polarization of SRC2 Texas Red (555 nm excitation and 632 nm emission). Data were normalized to unbound (all components except TRb) and bound SRC2 Texas Red controls. Total fluorescence (TF) was calculated as follows: TF = S + 2P where S and P are fluorescence readings in the parallel and perpendicular channels, respectively.
Keywords: NIH Roadmap, MLPCN, MLI, MLSMR, qHTS, NCGC, qHTS, thyroid hormone receptor, steroid receptor coactivator, fluorescence polarization
Potency is read from the fitted curve at half-maximal effect; tags tell the direction and shape of the fitted curve or compound fluorescence and quenching.

Structure (SMILES)	Potency
COc1cc(/C=N/NC(=O)c2cc(-c3ccc4c(c3)OCO4)n[nH]2)ccc1O	inconclusive [falling, full curve, poor fit]
O=C(CCc1ccccc1)Nc1nnc(-c2ccccn2)o1	inconclusive [falling, partial curve, poor fit]
Cc1ccc2oc(C(=O)Nc3ccc(S(=O)(=O)Nc4nc(C)cc(C)n4)cc3)cc(=O)c2c1	active: 31.6 µM [quencher]
O=C(O)c1ccc(N=NNc2cccc([N+](=O)[O-])c2)cc1	inactive
Cc1ccc(CNC(=O)C2CCCN(Cc3nc(-c4cccc(C)c4)oc3C)C2)cc1 (stereo not drawn)	inconclusive [falling, full curve, poor fit]
COc1ccc(NC(=O)CN(c2ccc(C)cc2)S(=O)(=O)c2cccs2)cc1	inactive
COc1ccc(C(=O)OCc2cc(=O)n3nc(C4CC4)sc3n2)cc1OC	inconclusive [falling, full curve, poor fit]
CCSC1(SCC)N=C(N)C2(C#N)C(c3ccc(F)cc3)C12C#N (stereo not drawn)	inactive
CC(C)c1ccc(NC(=O)C(Cc2ccccc2)NS(=O)(=O)c2ccc3c(c2)CCC(=O)N3)cc1 (stereo not drawn)	inactive
Cn1nnnc1SCCNCc1ccccc1Cl	inconclusive [falling, full curve, poor fit]
CN1CCc2c(sc3c2C(=O)NC(c2ccc(OC(=O)c4ccc(Cl)cc4)cc2)N3)C1 (stereo not drawn)	inactive
Cc1ccc2onc(CC(=O)N3CCN(c4cccc(C)c4C)CC3)c2c1	inconclusive [falling, partial curve, poor fit]
O=C(O)c1ccc2nc(-c3ccco3)c(-c3ccco3)nc2c1	inconclusive [falling, single point]
COc1ccc2cc(/C=N/NC(=O)c3c(Cl)cnn3C)c(Cl)nc2c1	inconclusive [rising, single point]
c1ccc2c(Nc3ccc4c(c3)OCCO4)c3c(nc2c1)CCC3	inactive
COc1cc(/C=N/N2C(=O)C3C4c5ccccc5C(c5ccccc54)C3C2=O)ccc1O (stereo not drawn)	active: 0.891 µM [quencher]
Cc1ccc(-c2nnc(SCC(=O)Nc3ccc4c(c3)oc3ccccc34)n2C)c(Cl)c1	inactive
Cc1cc2[nH]c(=O)c(=O)[nH]c2cc1S(=O)(=O)Nc1cccc(C(F)(F)F)c1	inconclusive [quencher, full curve]
Cc1sc2ncn(CC(=O)N3CCN(c4ccc(F)cc4)CC3)c(=O)c2c1S(=O)(=O)N1CCN(c2ncccn2)CC1	inconclusive [quencher, full curve]
O=C(COc1ccc(Cl)cc1)NCCc1csc(-c2cccc(F)c2)n1	inconclusive [falling, full curve, poor fit]
CC(C)(C)n1nnnc1C(c1cccs1)N(Cc1ccccc1)Cc1cccnc1 (stereo not drawn)	inactive
Cc1cc2ccccc2n1CCNC(=O)c1ccc(S(=O)(=O)N2CCOCC2)cc1	inconclusive [fluorescent, partial curve]

Structure (SMILES)	Potency
CC(=O)c1ccc(NC(=O)CSc2nccn2Cc2ccc3c(c2)OCO3)cc1	inconclusive [falling, full curve, poor fit]
Cc1cccc(Cn2c(SCc3ccc(C(=O)NC4CCCCC4)cc3)nc3ccncc32)c1	inconclusive [quencher, full curve]
CC1=C(C(=O)Nc2ccccc2)C(c2ccc(C)o2)n2c(s/c(=C\c3ccco3)c2=O)=N1 (stereo not drawn)	inactive
CCCNC(=O)N1CCN(S(=O)(=O)c2ccc3c(ccn3C)c2)CC1	inconclusive [falling, partial curve, poor fit]
O=C(CN1N=C(c2ccc(Cl)cc2)CCC1=O)NCCN1CCc2ccccc2C1	inconclusive [quencher, partial curve]
CCOc1cccc2sc(N(CCN(CC)CC)C(=O)c3ccco3)nc12	active: 14.1 µM [quencher]
CCn1c(CCC(=O)O)nc2cc(S(=O)(=O)N(C)C)ccc21	inactive
O=C(NCc1cccs1)c1ccc([N+](=O)[O-])cc1	active: 0.1 µM [quencher]
CC[n+]1c(/C=C/Nc2ccccc2)sc2ccccc21	active: 44.7 µM [fluorescent]
CC(=C/c1ccco1)/C=N/NC(=O)Cc1cccn1C	inconclusive [falling, full curve, poor fit]
COc1ccc(CCC(=O)NCCc2csc(-c3ccc(Cl)cc3)n2)cc1	inconclusive [falling, partial curve, poor fit]
CCOc1ccc(N/C=C/C(=O)c2ccc(C)cc2)c([N+](=O)[O-])c1	inactive
Cc1ccc2cccc(NC(=O)c3ccc(-c4cccc(Cl)c4)o3)c2n1	inconclusive [quencher, partial curve]
Cc1cc(C)c(NC(=S)N(Cc2cccnc2)Cc2ccco2)c(C)c1	inconclusive [falling, full curve, poor fit]
Cc1nc(SCc2ccc(Cl)cc2)c(C#N)c(C)c1Cl	inconclusive [falling, full curve, poor fit]
Oc1[nH]c2ccccc2c1C=Nc1ccc2c(c1)OCO2	inactive
COc1ccc(C)cc1NC(=O)Cn1c(=O)oc2cc(S(=O)(=O)NCc3ccccc3)ccc21	inconclusive [falling, full curve, poor fit]
CCOc1cccc(NC(=O)c2ccc(F)c(S(=O)(=O)N(CC)c3cccc(C)c3)c2)c1	inactive
Cc1ccc(CNC(=O)C2CCN(C(=O)c3cnn(-c4ccccc4)c3-n3cccc3)CC2)cc1	inconclusive [quencher, full curve]
O=C(COC(=O)C1(c2ccccc2F)CCCC1)N1CCc2ccccc21	inconclusive [falling, full curve, poor fit]
O=C(COC(=O)C1CC(O)CN1S(=O)(=O)c1ccc(Cl)cc1)c1ccccc1 (stereo not drawn)	active: 0.112 µM [quencher]
